Activation data for 83 molecules are collected here from PubChem BioAssay AID1346428 (National Center for Advancing Translational Sciences (NCATS), 2018).

Several values for one entry are separate records, joined by “and”; a condition that tells them apart may be missing. Equal values may be shown once. In all, about 48,000 compounds went through this assay and about 1,200 (2.5%) were called active. Not shown: some 2% with an inconclusive outcome.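 Rule for the calls: active = activation of at least 60% and not above a set upper limit (about 1 call in 100 departs from these limits); inconclusive = activation of 40% to 60%, or above that upper limit; inactive = activation under 40%.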 The list shows a part of the results.

Chain of UniProt O75388 (O75388 whole entry, looked up): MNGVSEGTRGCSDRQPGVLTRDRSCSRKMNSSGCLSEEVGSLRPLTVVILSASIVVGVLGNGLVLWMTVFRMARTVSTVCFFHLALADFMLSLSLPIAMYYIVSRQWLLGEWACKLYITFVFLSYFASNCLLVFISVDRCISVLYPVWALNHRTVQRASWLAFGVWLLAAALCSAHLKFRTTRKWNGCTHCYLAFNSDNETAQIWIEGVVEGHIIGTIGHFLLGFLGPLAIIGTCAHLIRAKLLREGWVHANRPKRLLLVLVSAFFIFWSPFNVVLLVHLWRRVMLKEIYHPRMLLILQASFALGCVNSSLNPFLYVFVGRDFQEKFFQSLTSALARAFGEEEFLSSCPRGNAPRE

In this experiment the target is Probable G-protein coupled receptor 32 (Homo sapiens) (UniProt O75388). Kind of experiment: qHTS for Agonists of Human Resolvin D1 Receptor DRV1. Note: 0% is about no effect. The conditions noted are these: CHO-K1 GPR32 beta-arrestin PathHunter luminescence, 90 min; at 76.9 µM; hits give high values; zero percent set by DMSO-only wells. A digest of the protocol:
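CHO-K1 cells stably expressing ProLink-tagged GPR32 and Enzyme Activator-tagged beta-arrestin were seeded at 2,500 cells/well overnight, exposed to compounds for 90 min at 37 °C, then read by beta-Gal complementation chemiluminescence after 1 h detection reagent.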
As to `Cc1nn(C(=O)c2ccc(Cl)cc2)c(C)c1S(=O)(=O)N1CCCCCC1`, the activation is inactive: 18.5%.
Take `Cc1nn2c(C)c(C(=O)NCc3ccco3)cnc2c1-c1ccccc1`: the activation was inactive: -19.7%.
To `O=C(NC1CC(=O)N(c2ccccc2)C1)c1ccc(S(=O)(=O)N2CCCCC2)cc1` (stereo not drawn) belongs inactive: -2.14%.
`CCN(CC)c1nc2ccccc2nc1C(=O)Nc1cc(OC)c(OC)c(OC)c1`: the activation is inactive: -8.81%.
In the case of `Cc1ccc(N2CCn3c2nc2c3c(=O)n(CCCc3ccccc3)c(=O)n2C)cc1C`, the activation is inactive: -16.7%.
Consider `CCOc1ccc(Cn2nnc(C(=O)Nc3cccc(SC)c3)c2N)cc1`, for which the activation was inactive: -2.67%.
For `Cc1nn(-c2ccc(F)cc2)c(-n2cccc2)c1C(=O)N1CCN(c2ccccc2)CC1`, the activation was inactive: -4.65%.
The value for `Cc1cc2nn(-c3ccccc3)nc2cc1NC(=O)COc1ccc(Cl)cc1` was inactive: -4.6%; that for `CC1CCC(NC(=O)CCc2cn(Cc3ccccc3Cl)c3ccccc23)CC1` (stereo not drawn) was inactive: -29.1%; that for `CCCN(CCC)C(=O)Cn1c(=O)n(-c2ccc(C)c(C)c2)c(=O)c2c3c(sc21)CCCCC3` was inactive: -8.86%.
`Cc1cc(NC(=O)c2cc(-c3cccc(Cl)c3)on2)nn1Cc1ccc(Cl)cc1`: the activation was inactive: 3.05%.
As for `Cc1ccc(CN2C(=O)N(c3ccc(F)cc3)C(=O)C2CC(=O)Nc2ccc(Cl)cc2)cc1` (stereo not drawn), the activation is inactive: 4.32%.
For the molecule `Cc1ncc(CO)c2c1Oc1nc(-c3ccc(F)cc3)nc(SCC(=O)N3CCCCC3)c1C2`, the activation is inactive: -1.38%.
To `O=C(NCCc1ccccc1)C1CCN(c2ncnc3c2nc2n3CCCCC2)CC1` belongs inactive: -13.5%; to `COc1ccc(NC(=O)CSC2=Nc3ccccc3C3=NC(CCC(=O)NCc4cccs4)C(=O)N23)cc1` (stereo not drawn), inactive: -46%.
Regarding `Cc1ccc(C)c(Cn2c3ccccc3c3cnn(CC(=O)NC4CCC(C)CC4)c(=O)c32)c1` (stereo not drawn), the activation is inactive: -2.76%.
Take `COC(=O)CN1C(=O)CSc2ccc(S(=O)(=O)Nc3cccc(Br)c3)cc21`: the activation was inactive: 8.07%.
`Cc1ccc(NC(=O)CSc2nnc(-c3cc4occc4n3C)n2-c2ccccc2C)c(Cl)c1`: the activation is inactive: -14.8%.
For the molecule `CCOc1ccc(NC(=O)CSc2nc3c(oc4ccccc43)c(=O)n2-c2cc(C)cc(C)c2)cc1`, the activation is inactive: -11%.
Consider `CCCCOC(=O)/C(C#N)=C/c1ccc(-c2cccc(C(F)(F)F)c2)o1`, for which the activation was inactive: -8.76%.
As for `CC1=C(C(=O)NCc2cccc(Br)c2)C2(CCCCC2)OC1=O`, the activation was inactive: 46.3%.
`CCOc1ccc(-c2nonc2NC(=O)c2ccco2)cc1`: the activation is inactive: -8.95%.
Take `Cc1ccccc1CNC(=O)C1CCN(S(=O)(=O)Cc2ccccc2)CC1`: the activation is inactive: -6.94%.
For the molecule `COc1cc(/C=C/c2nc(C#N)c(N3CCCCC3)o2)cc(OC)c1OC`, the activation was inactive: -8.79%.
The value for `Cc1ccc(C2c3[nH]c4ccccc4c3CCN2C(=O)c2ccccc2Br)cc1` (stereo not drawn) was inactive: -30.8%; that for `Cc1nnc(N2CCC(C(=O)Nc3ccc(F)cc3)CC2)c2nn(-c3ccc(Cl)cc3)c(C)c12` was inactive: -28.1%.
In the case of `Cc1ccc(C(=O)Nc2c(-c3ccccc3)nc3ccccn23)cc1`, the activation was inactive: -6.9%.
Regarding `CCCCOc1ccc(CNC(=O)Cc2ccc(NC(=O)N3CCCCc4ccccc43)cc2)cc1`, the activation was inactive: -33.5%.
On to `COc1ccc(-c2nc(SCC(=O)N3CCN(c4ccc(F)cc4)CC3)n[nH]2)cc1`, for which the activation is inactive: -13.6%.
On to `COc1ccc(CCNC(=O)c2ccc3c(c2)N(Cc2cc(C)ccc2C)C(=O)c2ccccc2S3=O)cc1OC` (stereo not drawn), for which the activation was inactive: -16.3%.
With `CCOC(=O)c1c(Nc2ccc(F)cc2)nnc(-c2ccccc2)c1-c1ccccc1`, the activation is inactive: 0.171%.
The value for `CC(C)(C)OC(=O)N1CCC(c2c(C(=O)N3CCN(c4ccccc4)CC3)cnn2-c2ccccc2)CC1` was inactive: -7.81%; that for `CCn1c(=O)n(-c2ccc(F)cc2)c(=O)c2sc3ccccc3c21` was inactive: -4.98%; that for `Cc1cc(Br)ccc1NC(=O)Cn1cnc2sc(C)c(S(=O)(=O)N3CCN(C)CC3)c2c1=O` was inactive: -8.34%.
The value for `COC(=O)c1sc2cccc(F)c2c1S(=O)(=O)Nc1ccc(N(C)C)cc1` was inactive: 22.4%; that for `CCCN(C(=O)c1cc2ccc3cccnc3c2[nH]1)c1ccc(F)cc1` was inactive: -17.1%; that for `O=C(c1ccccc1Cl)N(Cc1ccco1)c1ccccn1` was inactive: 21%.
Turning to `CC(=O)N1CCC2(CC1)OC(=O)C(C)=C2C(=O)Nc1cc(C)ccc1C`, the activation was inactive: -10.2%.
As for `CCOC(=O)c1cc(-c2ccc(C)cc2)n(CC(=O)Nc2ccccc2F)c1C`, the activation is inactive: -1.4%.
Regarding `CC1=C(C(=O)O)N2C(=O)[C@@H](NC(=O)C(N)c3ccccc3)[C@H]2SC1` (stereo partly drawn), the activation is inactive: 3.49%.
As to `CC(=O)Nc1ccc(-n2c(CCC(=O)O)ccc2-c2ccc(Br)cc2)cc1`, the activation is inactive: 20.4%.
Regarding `COc1ccc(Cl)cc1NC(=O)Cn1c(=O)n(Cc2cccs2)c(=O)c2cccnc21`, the activation was inactive: -3.62%.
Take `Cc1nc2cccnc2n1C1CCN(S(=O)(=O)N(C)C)CC1`: the activation was inactive: 4.95%.
`COc1ccc(CNC(=O)Cc2c(C)c3c(cc(C)c4c(C)coc43)oc2=O)cc1OC`: the activation was inactive: -12.7%.
Take `CCc1ccc(-c2[nH]nc3nc(-c4ccc(OC)cc4)cc(C(=O)NCCCOC)c23)cc1`: the activation was inactive: -0.331%.
Turning to `COC(=O)c1ccccc1NC(=O)c1ccc(COc2cc(C)cc(C)c2)o1`, the activation is inactive: -5.93%.
Consider `COc1ccc(CCCc2nnc(SCC(=O)Nc3cc(C)ccc3C)o2)cc1`, for which the activation was inactive: -0.262%.
To `COc1ccc(Br)c2c1-c1nc(NC(=O)c3ccccc3F)sc1C2` belongs inactive: 12.2%; to `CCCC(=O)Nc1ccc(O)c(C(C)=O)c1`, inactive: 10.3%; to `Cc1nc2ccc(S(=O)(=O)N(CC(=O)Nc3cccc(Cl)c3)Cc3ccccc3)cc2s1`, inactive: -23.1%.
On to `Cc1nn(CC(=O)NCc2ccc(N(C)C)cc2)c(=O)c2c(C)n(-c3ccc(Cl)cc3)nc12`, for which the activation is inactive: -11.8%.
With `CCOc1ccc(NC(=O)CCn2c(=O)c3cccn3c3cccnc32)cc1`, the activation is inactive: -15.6%.
The value for `CCCN(CCC)CCCNC(=O)c1cn(CC)c2ccc(S(=O)(=O)N(C)C3CCCCC3)cc2c1=O` was inactive: -38.6%; that for `CCc1ccc(OCc2cc(=O)n3c4c(sc3n2)CCCC4)cc1` was inactive: 12.7%; that for `Cc1cc(N)c2ccccc2[n+]1CCCCCCCCCC[n+]1c(C)cc(N)c2ccccc21` was inactive: -14.3%.
Regarding `O=C(C1CCC1)N1CCCc2cc(S(=O)(=O)N3CCN(c4ccccc4)CC3)ccc21`, the activation was inactive: -23.4%.
The value for `COc1cccc(N2CCN(C(=O)C3Cc4ccccc4N3C(C)=O)CC2)c1` (stereo not drawn) was inactive: 36.4%; that for `CCOC(=O)N1CCc2c(sc(NCc3cccc(F)c3)c2C(=O)Nc2ccc(OC)cc2OC)C1` was inactive: -11.6%; that for `CCC(=O)Nc1ccccc1-c1nc2ccccc2n(CC(=O)c2ccc(Cl)cc2)c1=O` was inactive: -14.8%.
For the molecule `CC(C)OC(=O)C(C(=O)C(F)(F)F)c1cc(NS(=O)(=O)c2ccc3c4c(cccc24)C(=O)N3)ccc1O` (stereo not drawn), the activation is inactive: 11.8%.
As to `Cc1cccc(-c2nc3ccccc3n2Cc2ccccc2)c1`, the activation was inactive: -23.1%.
For `CCNc1ncnc2c1nnn2C`, the activation is inactive: -3.28%.
To `CCOC(=O)c1c(C)[nH]c(CCC(=O)Nc2c(C)cccc2CC)c1C` belongs inactive: -10.7%; to `Cc1ccc(S(=O)(=O)c2nnn3c2nc(NC(C)C)c2sccc23)cc1`, inactive: -14.7%; to `COc1ccc2c(Sc3ccc(C)cc3)c(C(=O)NCc3ccc(F)cc3)[nH]c2c1`, inactive: -4.06%.
As for `CN(C)C(=O)Oc1ccc[n+](C)c1`, the activation was inactive: -0.56% and inactive: -0.966%.
The value for `Nc1c2c(nc3ccccc13)CCCC2O` (stereo not drawn) was inactive: -8.95% and inactive: 4.67%.
For `COc1ccccc1NC(=O)C1=C(C)Nc2nc(CCCO)nn2C1c1cccc(O)c1` (stereo not drawn), the activation is inactive: -4.63%.
As to `O=C(CCCn1c(=O)c2ccccc2n(Cc2cccc(Cl)c2)c1=O)NCCc1ccc(Cl)cc1`, the activation was inactive: -20.3%.
On to `Cc1ccc(S(=O)(=O)N2CCCc3cc(NS(=O)(=O)c4cc(F)ccc4F)ccc32)cc1`, for which the activation was inactive: -1.04%.
The value for `O=C(CSc1nc2c(oc3ccccc32)c(=O)n1-c1ccccc1)Nc1ccccc1F` was inactive: -26.9%; that for `CC(C)c1ccc(NC(=O)CC2NCCNC2=O)cc1` (stereo not drawn) was inactive: -8.39%; that for `CCOC(=O)c1ccc(N2C(=O)c3n[nH]c(-c4ccco4)c3C2c2ccc(OCC)cc2)cc1` (stereo not drawn) was inactive: -24.6%.
With `CCCC(=O)Nc1cc(C(=O)NCc2ccccc2)ccc1S(=O)(=O)c1ccc(Cl)cc1`, the activation is inactive: -6.5%.
The value for `Cn1c(=O)c(=O)n(C)c2cc(S(=O)(=O)N3CCN(c4ccc(F)cc4)CC3)ccc21` was inactive: -4.47%.
To `COc1cc(C2CC(=O)c3cnc(N4CCN(CCO)CC4)nc3C2)cc(OC)c1OC` (stereo not drawn) belongs inactive: 2.36%; to `O=C(Cn1cc(S(=O)(=O)N2CCCC2)c(S(=O)(=O)N2CCCC2)c1)Nc1ccccc1`, inactive: -5.71%; to `CCC(C(=O)OCc1cc(=O)n2nc(C)sc2n1)c1ccccc1` (stereo not drawn), inactive: -15.4%.
For `Cc1cccc(-c2noc(CN(C3CCCCC3)S(=O)(=O)c3ccc(F)cc3)n2)c1`, the activation is inactive: -30.4%.
With `COc1ccc(OC)c(NC(=O)c2c(NCc3sccc3C)sc3c2CCCCC3)c1`, the activation is inactive: -12.7%.
To `COc1ccc2c(c1)-c1nc(NC(=O)c3ccc(OC)c(Br)c3)sc1CC2` belongs inactive: -0.193%; to `COc1ccc(NC(=O)CSc2nc3ccccc3nc2N2CCC(C)CC2)cc1`, inactive: -43.7%; to `COc1ccc(CNC(=O)CN(c2ccc(C(C)C)cc2)S(=O)(=O)c2c(C)nn(C)c2C)cc1`, inactive: -17%.
